A short description of assay [1]: qHTS Assay for Lipid Storage Modulators (AID 1519). The conditions noted are these: Drosophila S3 cells, BODIPY lipid droplet/cell ratio, laser cytometry, cells loaded with oleic acid. An outline of the steps:
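Cells seeded at 5,000 per well were treated with compounds over a concentration series and loaded with oleic acid (400 uM, as added). Lipid droplet fluorescence (488 nm excitation, 500-530 nm channel) was read by laser-scanning cytometry and normalized to 20 uM Triacsin C.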
In general terms: In qHTS, concentration-response curves come from the screen itself.

Assay [2] can be described thus: qHTS assay for small molecule antagonists of androgen receptor signaling (AID 588516). The conditions noted are these: AR-UAS-bla HEK293, beta-lactamase ratio, antagonist mode, 16 h; measured here: W530 green channel, cytotoxicity/artifact. A digest of the protocol:
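Antagonist mode: inhibition of R1881-stimulated (10 nM final) bla reporter in GeneBLAzer AR HEK 293 cells, 16 h at 37C, compounds titrated. IC50 and efficacy from Hill-equation fits of 405/460–530 nm FRET ratios.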

A short description of assay [3]: qHTS assay for small molecule antagonists of peroxisome proliferator-activated receptor delta signaling (AID 588535).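 Note: cells co-treated with a PPAR-delta agonist as stimulator during compound exposure.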 The conditions noted are these: HEK293T PPARd-UAS-bla, beta-lactamase FRET ratio, 18 h; 460 nm channel. A digest of the protocol: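 Fluorescence from CCF4-loaded GeneBLAzer PPAR-delta-UAS-bla HEK293T cells (2 hrs RT loading) quantified reporter inhibition after an 18 hr, 37 C compound exposure across a titration.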

Assay [4] is described as follows: qHTS assay for small molecule antagonists of peroxisome proliferator-activated receptor gamma signaling (AID 588537). To be noted: HEK293 PPARg-UAS-bla, beta-lactamase ratio, antagonist mode; measured here: W460 blue channel. A digest of the protocol: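 Fluorescence at 460 and 530 nm (405 nm excitation) reported beta-lactamase cleavage of CCF4 after 2 h room-temperature loading. HEK293 reporter cells in 1% charcoal/dextran-treated FBS had received compound and rosiglitazone for 16 h.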

Assay [5] in a line: qHTS assay for small molecule agonists of retinoid X receptor alpha signaling (AID 588544). The conditions noted are these: HEK293T RXRa-UAS-bla, beta-lactamase reporter, 18 h; 530 nm emission.
A short description of assay [6]: qHTS assay for small molecule antagonists of retinoid X receptor alpha signaling (AID 588546).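 Note: cells stimulated with 9-cis-retinoic acid as agonist; % is set by controls: 0 for no effect and ±100 for the full control effect.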 The conditions noted are these: HEK293T RXRa-UAS-bla, beta-lactamase ratio, antagonist mode; measured here: W530 green channel, cytotoxicity proxy. An outline of the steps:
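Beta-lactamase reporter inhibition, read as CCF4 fluorescence ratio (ex 405, em 460/530 nm) after 2 h at RT. HEK293T UAS-bla cells, 2500/well, were stimulated with 9-cis-RA at 500 or 100 nM final alongside test compound for 18 h at 37 C.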

Assay [7] has as its target Catechol O-methyltransferase (Homo sapiens) (UniProt P21964). The experiment in a line: Confirmatory Screen for Target Class Profiling of Small Molecule Inhibitors of Methyltransferases (AID 1745852).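 Note: inhibitor potency for blocking SAH production.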 To be noted: MTase-Glo luminescence, SAH detection, recombinant enzyme; measured here: COMT inhibition potency.
UniProt P21964, sequence (P21964 whole entry, looked up): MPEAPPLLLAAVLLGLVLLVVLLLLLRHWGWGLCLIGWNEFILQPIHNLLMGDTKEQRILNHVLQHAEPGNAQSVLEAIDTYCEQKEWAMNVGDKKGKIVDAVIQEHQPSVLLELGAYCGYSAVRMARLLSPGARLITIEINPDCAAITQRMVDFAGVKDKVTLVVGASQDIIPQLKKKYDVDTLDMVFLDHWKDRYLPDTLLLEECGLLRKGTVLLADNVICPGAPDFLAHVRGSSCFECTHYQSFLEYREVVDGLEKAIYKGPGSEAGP
Assay [8] is described as follows: qHTS Assay for Modulators of Human Peripheral Myelin Protein 22 (PMP22) Expression/Activity (AID 1967). The conditions noted are these: Cell-based PMP22 reporter, dual-color luciferase ratio. A digest of the protocol:
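Mouse MSC80 Schwann cells carrying Pmp22 promoter–green click beetle luciferase plus EF-alpha–red luciferase control, dosed 24 h at 37 °C. Dual-filter luminescence, overlap-corrected; %Activity from green/red ratio normalised to untreated cells, concentration-response curves fitted.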

The nature of assay [9]: qHTS Validation Assay to Find Inhibitors of Chronic Active B-Cell Receptor Signaling (AID 485345). To be noted: ABC-DLBCL cells, chronic BCR signaling reporter. An outline of the steps:
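TMD8 ABC-DLBCL cells stably carrying doxycycline-inducible IkappaBalpha–green luciferase fusion plus unfused red luciferase; compounds 46 uM to 3 nM, 4 h at 37C with doxycycline. Corrected green/red luminescence ratio normalized to 10 uM MG-132 and basal cell wells; curves fitted.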

Assay [10] in a line: A High-Content qHTS Against Drug Library for the Identification of Small Molecules that Inhibit DYT1 Early Onset Primary Dystonia-Associated Cell Pathology (AID 1645839). The conditions noted are these: HEK293 Flp-In EGFP-delE TorsinA, punctate imaging, 48 h; measured here: cell count cytotoxicity. An outline of the steps: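 Cells were seeded and left for 24 h, then dosed with compound alongside tetracycline induction of mutant EGFP-TorsinA. They were incubated for 48 h, fixed in 4% paraformaldehyde, permeabilized and imaged for mislocalization (%pathology) and cell count.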

Assay [11] can be described thus: S16 Schwann cell PMP22 intronic element beta-lactamase assay (AID 624044). Note: nearly all actives have a fitted effect of over 15% in size. The conditions noted are these: S16 rat Schwann cells, PMP22 element beta-lactamase FRET, 24 h; measured here: 530 nm viability channel. A digest of the protocol: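 Beta-lactamase reporter under a PMP22 intronic regulatory element in stable S16 rat Schwann cells; 24 h compound exposure. 460 nm blue signal normalized between DMSO (0%) and potassium clavulanate, with 535 nm FRET tracking viability; curves classed by r2 and response.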

Assay [12] in a line: qHTS for identification of novel therapeutic agents for treatment of microphthalmiaassociated transcription factor (MiT) renal cell carcinoma (RCC) (AID 1963991).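 For z-score: curves scaled with 100% = DMSO viability and 0% = empty wells.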 To be noted: CellTiter-Glo, 48 h; for z-score: stronger effect = lower value. A digest of the protocol: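 UOK109/UOK124/UOK145 (TFE3 fusions, three partners); 500 cells/well; MIPE v4.0, 1912 cpds, 11 conc.; 48 h, 37 C; CellTiter-Glo, 15 min RT; lum. Norm.: DMSO 100%, empty 0%.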

[13] abbreviates: measured here: cell count channel max response.
Setting [14] is: measured here: cell number channel AC50.
[15] abbreviates: measured here: lipid (BODIPY) channel AC50.
[16] abbreviates: measured here: lipid channel max response.
Where [17] appears, read: measured here: green reporter channel AC50, mouse Pmp22 promoter in mouse Schwann cells.
[18] abbreviates: measured here: red reporter channel AC50, EF-alpha promoter control reporter in MSC80 mouse Schwann cells.
Setting [19] is: measured here: CBG/CBR ratio read-out.

The term AC50 denotes the concentration giving half of the maximal activity seen. For orientation: IC50 means the point on the concentration scale where inhibition reaches its midpoint.

The structures appear in SMILES notation. Where “and” joins values, the source holds several entries; their conditions need not be identical. Equal values may be shown once. The list shows a part of the results. Shown are side measurements of this screen, not its main read-out; they come without a call. Compounds called inactive in the main read-out are mostly missing here. For some assays here: The note in brackets gives the kind of curve behind each potency; many fits are weak.
Tags give direction and shape of the fitted curve.

As to `COc1cc(/C=C/C(=O)CC(=O)/C=C/c2ccc(O)c(OC)c2)ccc1O`, the max response in assay [1] (setting [13]) was 2.09%; in assay [1] (setting [16]), -41.3%; in [3], 57.9%; in assay [5], 65.9%; in [6], 46%. The AC50 in [1] (setting [14]) was 1.41 µM [rising, full curve]; in assay [1] (setting [15]) it was 1.58 µM [rising, full curve]; in [2], 35.5 µM [rising, partial curve]; in [4] it was 44.7 µM [rising, single point]. Moreover, in [7], the IC50 was 21.7 µM [falling, partial curve].
As for `CNCC(O)c1ccc(O)c(O)c1` (stereo not drawn), the max response was 19% and 40.6% in assay [1] (setting [13]); 38% and 42.9% in [1] (setting [16]). Also, the AC50 is 15.8 µM [falling, single point] in [1] (setting [14]); 44.7 µM [rising, partial curve, poor fit] and 15.8 µM [falling, single point] in [1] (setting [15]); 84.9 µM [falling, single point] in assay [8] (setting [17]); 95.3 µM [falling, single point] in assay [8] (setting [18]); 0.651 µM [falling, single point] in assay [9] (setting [19]); 35.5 µM [rising, single point] in assay [10].
As for `C=CCN1CCc2c(cc(O)c(O)c2Cl)C(c2ccccc2)C1` (stereo not drawn), the results for the max response in [1] (setting [13]) and in [1] (setting [16]) were 52.4% and 53.4%, respectively. Moreover, the AC50 in assay [1] (setting [14]) is 7.94 µM [falling, full curve]; in assay [1] (setting [15]), 7.94 µM [falling, full curve]; in assay [8] (setting [18]) it was 23.9 µM [falling, full curve]. Besides, the IC50 in [7] is 17.2 µM [rising, partial curve].
Regarding `OCCN(CCO)c1nc(N2CCCCC2)c2nc(N(CCO)CCO)nc(N3CCCCC3)c2n1`, the max response is 61.7% and 16.7% and 62.4% in assay [1] (setting [13]); 78.4% and 39.1% and 65.2% in assay [1] (setting [16]). In addition, the AC50 in assay [1] (setting [14]) is 35.5 µM [rising, single point] and 14.1 µM [falling, partial curve, poor fit]; in [1] (setting [15]) it was 35.5 µM [rising, partial curve, poor fit] and 31.6 µM [rising, single point] and 14.1 µM [falling, partial curve, poor fit]; in assay [8] (setting [17]), 33.8 µM [falling, full curve]; in [8] (setting [18]), 42.6 µM [falling, full curve]; in assay [9] (setting [19]), 0.366 µM [falling, full curve]; in assay [9] (measured here: CBR control luciferase (viability counter)), 0.0103 µM [rising, full curve]. Further, the AC50 is 14.1 µM [rising, partial curve] in assay [11]; 5.62 µM [falling, full curve, poor fit] in [10]; 37.2 µM [falling, single point] in [12] (TFE3-RCC viability, measured here: UOK124 cell viability). The z-score in [12] (TFE3-RCC UOK109 viability, measured here: UOK109 Z-AUC) worked out at 1.11; in assay [12] (TFE3-RCC viability, measured here: UOK124 Z-AUC), 0.282; in assay [12] (TFE3-RCC viability, measured here: UOK145 Z-AUC), 0.12.

The values are drawn from PubChem BioAssay (NCATS).
